# PubChem BioAssay AID1460 (National Center for Advancing Translational Sciences (NCATS), 2008)
# Out of some 270,000 compounds screened, about 5,800 (2.1%) were called active. Inconclusive means that the source gave no clear call. Such entries were picked first, then a sample of the others. The call rests on the fitted dose curve; in most records, active means well fitted inhibition curve with a large enough effect; inconclusive means small, poorly fitted or top-dose-only effect; inactive means flat fitted curve, though single readings scatter. A potency beside an inconclusive call is a rough fit, not a confirmed value.
# Biological target: Microtubule-associated protein tau (Homo sapiens) (UniProt P10636)
# Assay: qHTS for Inhibitors of Tau Fibril Formation, Thioflavin T Binding; further: nearly all actives have a fitted effect of over 55% in size
# Details: recombinant tau K18 P301L (four-repeat tau fragment), heparin-induced fibrillization, ThT fluorescence; series mostly up to 57.4 µM
# Procedure, shortened: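 Tau K18 P301L fragment (15 uM unlabeled plus 0.24 uM Alexa 594-labeled) in 100 mM sodium acetate pH 7 with compound, fibrillization induced by 20 uM heparin for 6 hr at 37 C. Thioflavin T (30 uM) added, fluorescence read after 1 hr (ex 450, em 510 nm).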
# Potency means the concentration at half of the fitted maximal effect; tags describe the fitted curve by direction and shape.
# UniProt P10636, sequence (P10636 whole entry, looked up): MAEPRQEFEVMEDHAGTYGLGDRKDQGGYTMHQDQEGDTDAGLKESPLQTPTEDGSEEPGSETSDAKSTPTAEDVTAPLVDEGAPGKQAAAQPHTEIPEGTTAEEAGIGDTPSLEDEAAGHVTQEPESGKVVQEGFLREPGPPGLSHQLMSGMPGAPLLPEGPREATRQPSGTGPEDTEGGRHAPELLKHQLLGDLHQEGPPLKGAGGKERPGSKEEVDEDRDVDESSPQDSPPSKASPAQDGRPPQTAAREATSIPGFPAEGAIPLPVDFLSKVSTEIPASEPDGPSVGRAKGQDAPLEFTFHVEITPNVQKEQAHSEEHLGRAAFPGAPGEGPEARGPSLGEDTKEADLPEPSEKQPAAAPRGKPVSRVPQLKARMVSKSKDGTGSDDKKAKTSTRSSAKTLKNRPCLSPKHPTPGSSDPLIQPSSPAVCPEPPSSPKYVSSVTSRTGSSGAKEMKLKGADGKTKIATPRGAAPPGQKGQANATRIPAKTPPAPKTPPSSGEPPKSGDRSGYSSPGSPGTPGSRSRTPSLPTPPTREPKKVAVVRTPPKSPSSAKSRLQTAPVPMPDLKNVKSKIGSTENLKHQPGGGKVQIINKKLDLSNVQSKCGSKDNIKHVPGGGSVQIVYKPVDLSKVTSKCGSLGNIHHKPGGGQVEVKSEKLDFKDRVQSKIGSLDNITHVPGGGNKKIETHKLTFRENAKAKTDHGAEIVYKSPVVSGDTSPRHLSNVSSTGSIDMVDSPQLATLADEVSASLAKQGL
row,SMILES,Potency
1,O=C(N/N=C/c1cn(-c2ccccc2)nc1-c1cccs1)c1ccncc1,"inconclusive: 44.7 µM [inhibitor, single point]"
2,CN(C)S(=O)(=O)N1CCN(CC(O)COc2ccc3cc(Br)ccc3c2)CC1 (stereo unspecified),"inconclusive: 14.1 µM [inhibitor, partial curve]"
3,Cc1ccc(-c2nc3ccccn3c2Nc2ccc3c(c2)OCCO3)o1,"inconclusive: 17.8 µM [inhibitor, partial curve]"
4,CC(=O)c1ccc(C(=O)N(Cc2cccnc2)c2nc3c(C)c(C)ccc3s2)cc1,"inconclusive: 39.8 µM [inhibitor, single point]"
5,CCCCOC(=O)/C(C#N)=C\c1ccc(-c2ccc(Cl)cc2)o1,inactive
6,Nc1c(C(=O)O)sc2nc(-c3ccccc3)cc(-c3ccc(Cl)cc3)c12,"inconclusive: 39.8 µM [inhibitor, single point]"
7,O=C(/C=C\Nc1ccc2c(c1)OCO2)c1ccccn1,"inconclusive: 0.794 µM [inhibitor, full curve]"
8,c1ccc2c(c1)CC/C2=N/Nc1nc2ccccc2[nH]1,"inconclusive: 11.2 µM [inhibitor, partial curve]"
9,CCOc1ccc(NC(=O)CCn2cccn2)cc1,inactive
10,CCOC(=O)c1ccccc1NC(=O)N1CC(C)Oc2ccc(C)cc21 (stereo unspecified),inactive
11,COc1ccc(C(=O)COC(=O)C2CCN(S(=O)(=O)c3cccc4cccnc34)CC2)cc1,"inconclusive: 12.6 µM [inhibitor, partial curve]"
12,CCC(C)NC(=O)CSc1nc(-c2ccc(F)cc2)cc(C(F)(F)F)n1 (stereo unspecified),inactive
13,CC(=O)N1CCN(c2csc3ccc(Br)cc3c2=O)CC1,"inconclusive: 25.1 µM [inhibitor, partial curve]"
14,CC(=C/c1ccc(C(C)C)cc1)/C=N/NC(=O)Cn1nc(C)cc1C,"inconclusive: 20 µM [inhibitor, partial curve]"
15,O=C(c1cc(S(=O)(=O)Nc2ccccc2F)c(Cl)cc1Cl)N1CCN(CCO)CC1,inactive
16,CCn1c(C(=O)N2CCC(C(=O)N3CCN(c4ccccn4)CC3)CC2)cc2sccc21,"inconclusive: 14.1 µM [inhibitor, partial curve]"
17,CC(CNC(=S)Nc1cc(F)cc(F)c1)CSc1ccc(Cl)cc1 (stereo unspecified),inactive
18,Cc1ccc(-n2c(=O)c3sccc3n(CC(=O)NCc3ccco3)c2=O)cc1,inactive
19,CCCOc1ccc(C(=O)CCN2CCCCC2)cc1,"inconclusive: 15.8 µM [inhibitor, partial curve]"
20,COC(=O)N[C@@H](c1cccc(C)c1)[C@@H](C)[N+](=O)[O-],inactive
21,COc1cc(/C=N/NS(=O)(=O)c2ccc(C)cc2)ccc1OCc1ccc(C(=O)O)cc1,"inconclusive: 28.2 µM [inhibitor, partial curve]"
22,O=C(O)c1ccccc1C(=O)Nc1nccs1,inactive
23,Cc1nc(NC(=O)c2ccccc2[N+](=O)[O-])sc1C(=O)N(C)C,inactive

row,SMILES,Potency
1,COc1ccc(CC(=O)Nc2nc3ccccc3s2)cc1S(=O)(=O)N1CCOCC1,inactive
2,COCCNC(=O)c1c(NC(=O)c2cc(=O)c3cc(Cl)ccc3o2)sc2c1CCCC2,"inconclusive: 1.41 µM [inhibitor, full curve, poor fit]"
3,COc1cc(OC)c(N(C)C(=O)Cn2ncc3c(=O)oc4ccccc4c32)cc1Cl,inactive
4,O=C(CN1C(=O)COc2ccc(S(=O)(=O)N3CCCCCC3)cc21)NCCc1ccccc1,inactive
5,COc1ccccc1N=Nc1c(C)noc1C,"inconclusive: 39.8 µM [inhibitor, single point]"
6,CCSc1nnc(NC(=O)c2cc(-c3ccc(C)c(C)c3O)n[nH]2)s1,"inconclusive: 8.91 µM [inhibitor, partial curve, poor fit]"
7,Cc1nc(N2CCc3ccccc3C2)[nH]c(=O)c1Cc1ccccc1,inactive
8,O=C(CSc1nnnn1C1CCCCC1)Nc1nc2c(s1)CCCC2,inactive
9,CC(=O)Nc1ccc(-c2nnc(SCC(=O)c3ccc4c(c3)Cc3ccccc3-4)n2C)cc1,"inconclusive: 3.55 µM [inhibitor, partial curve]"
10,COc1ccccc1-n1c(=O)c2c3c(sc2n(Cc2ccccc2F)c1=O)CN(C(C)=O)CC3,inactive
11,Cc1ccc(S(=O)(=O)c2cn(CC(=O)Nc3ccc4c(c3)OCO4)c3ccccc3c2=O)cc1C,inactive
12,CCc1ccc(-n2c(C)n[nH]c2=S)cc1,inactive
13,CCOc1ccc(OCc2ccc(C(=O)N/N=C(\C)c3ccccn3)cc2)cc1,"inconclusive: 1.12 µM [inhibitor, full curve]"
14,S=c1nccc(-c2ccc(Cl)cc2)[nH]1,"inconclusive: 39.8 µM [inhibitor, single point]"
15,C[C@H](NC(=O)OCc1ccccc1)c1nnc([C@H](C)NC(=O)OCc2ccccc2)o1,inactive
16,COc1cccc(C2CC3(CC(C)(C)NC(=S)N3)Oc3cc(O)ccc32)c1 (stereo unspecified),"inconclusive: 39.8 µM [inhibitor, single point]"
17,CCCCNc1ccc(C(CC(N)=O)NC(=O)Cc2cccc3ccccc23)cc1[N+](=O)[O-] (stereo unspecified),"inconclusive: 7.94 µM [inhibitor, full curve, poor fit]"
18,O=C(CCl)NC(Cc1ccccc1)c1ccccc1 (stereo unspecified),inactive
19,O=C1N/C(=N\S(=O)(=O)Cc2ccccc2)S/C1=C/c1cccc([N+](=O)[O-])c1,"inconclusive: 22.4 µM [inhibitor, partial curve, poor fit]"
20,C=C1C[C@H](OC(=O)C(C)(O)CCl)C2C(=C)C(=O)O[C@@H]2C2C1C[C@H](O)[C@]2(O)CCl (stereo partly specified),"inconclusive: 3.98 µM [inhibitor, full curve, poor fit]"
21,CS/C(N)=N/N=C/c1c(O)ccc2ccccc12,"inconclusive: 15.8 µM [inhibitor, partial curve]"
22,CCOc1ccc(NC(=O)c2cc3cc4cc(OC)ccc4nc3s2)cc1,"inconclusive: 1 µM [inhibitor, full curve]"
23,CCOC(=O)Cc1csc(NC(=O)c2ccc(Cl)nc2)n1,"inconclusive: 14.1 µM [inhibitor, partial curve]"
